Data as given in patent publication US20190233519A1 (published 2019).

B1: AS07014VH11G54 HCAb (Fc fusion)
heavy: EVQLVESGGGLVQPGGSLRLSCAASGYTYSRHCLGWFRQAPGKGREAVSTIDSGGSTSYADSVKGRFTISRDNAKNTLYLQMNSLRPEDTAVYYCAIGPNPRYCSGAPNTRGAEHYFGYWGQGTLVTVSS[gap - human IgG1 Fc]
B2: AS07014VH11SGA HCAb (Fc fusion)
heavy: EVQLVESGGGLVQPGGSLRLSCAASGYTYSRHCLGWFRQAPGKGREAVSTISSGGSTSYADSVKGRFTISRDNAKNTLYLQMNSLRPEDTAVYYCAIGPNPRYCSGAPATRGAEHYFGYWGQGTLVTVSS[gap - human IgG1 Fc]
B3: A34311 HCAb (Fc fusion)
heavy: QVKLEESGGGLVLPGESLRLSCEASGRTITTITMGWFRQAPGKERQFVASHSWTDNNPYYADSVKGRFIISRDNAGNRVYLQMHSLEPEDTAVYYCAATARRSFVGRQWYTEARQYDYWGQGTQVTVSS[gap - human IgG1 Fc]
B4: AS07014VH11SGQ HCAb (Fc fusion)
heavy: EVQLVESGGGLVQPGGSLRLSCAASGYTYSRHCLGWFRQAPGKGREAVSTISSGGSTSYADSVKGRFTISRDNAKNTLYLQMNSLRPEDTAVYYCAIGPNPRYCSGAPQTRGAEHYFGYWGQGTLVTVSS[gap - human IgG1 Fc]
B5: AS07189TKDVH11 HCAb (Fc fusion)
heavy: EVQLVESGGGLVQPGGSLRLSCAASGDSPSVNYMGWFRQAPGKGREEVSSIYPTGGTFYTDSVKGRFTISRDNAKNTLYLQMNSLRPEDTAVYYCAAGKWGTDYWGQGTLVTVSS[gap - human IgG1 Fc]
B6: AS07189TKDVH11F27 HCAb (Fc fusion)
heavy: EVQLVESGGGLVQPGGSLRLSCAASGFSPSVNYMGWFRQAPGKGREEVSSIYPTGGTFYTDSVKGRFTISRDNAKNTLYLQMNSLRPEDTAVYYCAAGKWGTDYWGQGTLVTVSS[gap - human IgG1 Fc]
B7: AS07014VH11 HCAb (Fc fusion)
heavy: EVQLVESGGGLVQPGGSLRLSCAASGYTYSRHCLGWFRQAPGKGREAVSTIDSDGSTSYADSVKGRFTISRDNAKNTLYLQMNSLRPEDTAVYYCAIGPNPRYCSGAPNTRGAEHYFGYWGQGTLVTVSS[gap - human IgG1 Fc]
B8: AS07014VH11SGS HCAb (Fc fusion)
heavy: EVQLVESGGGLVQPGGSLRLSCAASGYTYSRHCLGWFRQAPGKGREAVSTISSGGSTSYADSVKGRFTISRDNAKNTLYLQMNSLRPEDTAVYYCAIGPNPRYCSGAPSTRGAEHYFGYWGQGTLVTVSS[gap - human IgG1 Fc]
B9: A34311VH11 HCAb (Fc fusion)
heavy: EVQLVESGGGVVQPGRSLRLSCAASGRTITTITMGWFRQAPGKGREFVASHSWTDNNPYYADSVKGRFTISRDNAKNTLYLQMNSLRPEDTAVYYCAATARRSFVGRQWYTEARQYDYWGQGTLVTVSS[gap - human IgG1 Fc]

What was measured:
CTLA-4-His protein = CTLA-4-His protein (UniProt P16410 37-161); assay: SPR
CTLA-4-His protein, sequence (P16410 37-161): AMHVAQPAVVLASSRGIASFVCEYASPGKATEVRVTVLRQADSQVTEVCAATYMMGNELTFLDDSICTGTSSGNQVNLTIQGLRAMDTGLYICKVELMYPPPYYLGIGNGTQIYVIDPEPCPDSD

[1] = molecular target: human CTLA-4 expressed on CHO cells (UniProt P16410 37-223); assay: FACS cell binding
[2] = molecular target: T1, biotin-labeled hCTLA-4/Fc protein (UniProt P16410 37-161, biotin label in the FACS competition assays (sites not given)); assay: FACS ligand competition
[3] = molecular target: T1, biotin-labeled hCTLA-4/Fc protein; assay: FACS ligand competition (B7-1 cells)
T1 sequence (P16410 37-161): as above

[4] = molecular target: T1, biotin-labeled hCTLA-4/Fc protein; assay: FACS ligand competition (B7-1 cells); remark: listed apart in the source

Binder	Kd (CTLA-4-His protein)	EC50 [1]	IC50 [2]	IC50 [3]	EC50 [4]
B1	5.8 nM	–	–	–	–
B2	11 nM	2.6 nM	–	–	–
B3	–	–	6.9 nM	6.86 nM	19.8 nM
B4	11 nM	2.4 nM	–	–	–
B5	5.7 nM	4.4 nM	5.1 nM	–	–
B6	4.3 nM	4.1 nM	–	–	–
B7	3.8 nM	4.3 nM	4.1 nM	–	–
B8	12 nM	–	–	–	–
B9	15 nM	3.1 nM	3.5 nM	–	–
